The list shows a part of the results. Many values rest on one well or one pass, so single values are uncertain.
What follows are compounds tested on G361 (assay: cell count relative to DMSO control; melanoma cells; higher = more viable cells). Details: library dose: low library concentration; 72 h.
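Also: cell number obtained by counting DAPI-stained nuclei in high-throughput microscope images with image analysis software, screen run in 1,536-well plates.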

Q: How did the cell count turn out when `COc1cc(N2CCC(N3CCN(C)CC3)CC2)ccc1Nc1ncc(Cl)c(Nc2ccccc2S(=O)(=O)C(C)C)n1` + O=c1cc(-c2cccc3c2Sc2ccccc2S3)oc(N2CCOCC2)c1 [KU55933] (first compound 0.08 µM, partner dose 1 µM) was run?
A: 86.9%

Q: With `N#Cc1c(O)c2c(-c3ccc(-c4ccccc4O)cc3)csc2[nH]c1=O` + CCCCCCCCCCCC1=C(O)C(=O)C=C(O)C1=O [Embelin] (first compound 2 µM, partner dose 1.2 µM) as the compound, how does the cell count read?
A: 117%

Q: With `c1cc(-c2cnn3cc(-c4ccc(OCCN5CCCCC5)cc4)cnc23)ccn1` [Dorsomorphin] + O=c1cc(-c2cccc3c2Sc2ccccc2S3)oc(N2CCOCC2)c1 [KU55933] (first compound 0.4 µM, partner dose 1 µM) as the compound, how does the cell count read?
A: 62.4%

Q: Which cell count does the source give for `COc1ccc(-c2ccc3c(N4CCOCC4)nc(N4C[C@@H](C)O[C@@H](C)C4)nc3n2)cc1CO` + CCN(CC)CCCCNc1ncc2cc(-c3cc(OC)cc(OC)c3)c(NC(=O)NC(C)(C)C)nc2n1 [PD173074] (first compound 0.02 µM, partner dose 0.1 µM) here?
A: 92.3%

Q: For `N#Cc1c(O)c2c(-c3ccc(-c4ccccc4O)cc3)csc2[nH]c1=O` + COc1ccc2c(c1)CCC1C2CCC2(C)C(NCCCCCCN3C(=O)C=CC3=O)CCC12 [U73122] (first compound 2 µM, partner dose 0.4 µM), which cell count is on record?
A: 104%
